Test results from paper PMC3790000, “The Extended Transmembrane Orai1 N-terminal (ETON) Region Combines Binding Interface and Gate for Orai1 Activation by STIM1*^([image sbox.jpg])^♦” (The Journal of Biological Chemistry, 2013).

Target: T1, YFP-STIM1 233–485 (human, UniProt Q13586-1 in part)
T1 construct: the YFP fluorescence is the read-out of the thermophoresis; also called STIM1 233–485 C-terminal fragment; slightly extended OASF fragment; source: HEK293, transfected, in lysate (supernatant after Nonidet P40 lysis)
Test: MST; monolith NT.115 (Nanotemper); YFP-STIM1 233–485 (or free YFP) in HEK293 cell lysate kept constant, Orai1 peptide varied, up to 16 dilutions, 5 min incubation, glass capillaries; curve fitted to a one-site binding model
Settings: one partner purified

B1: Orai1 N-terminal peptide […] (peptide)
peptide: not shown
notes: also called Orai1 NT([…]); Orai1 […]; source: synthetic peptide, bought: peptide 2.0
A Kd of 246 ± 88 µM was found for B1 in this work.
